Results reported in publication PMC4336329 (PLoS ONE, 2015).
The whole screen tested about 310,000 compounds, of which about 14,000 (4.5%) showed an effect of 50% or more. Effects have a minus sign here. The list shows a part of the results.

Biological target: human ether-à-go-go-related gene (hERG) potassium channel (human, UniProt Q12809)
Assay: primary screen, population patch clamp on CHO cells stably expressing hERG
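Further: peak tail current of the secondary pulse compared with the same well before compound.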

Chain of human ether-à-go-go-related gene (hERG) potassium channel (Q12809 whole entry, looked up): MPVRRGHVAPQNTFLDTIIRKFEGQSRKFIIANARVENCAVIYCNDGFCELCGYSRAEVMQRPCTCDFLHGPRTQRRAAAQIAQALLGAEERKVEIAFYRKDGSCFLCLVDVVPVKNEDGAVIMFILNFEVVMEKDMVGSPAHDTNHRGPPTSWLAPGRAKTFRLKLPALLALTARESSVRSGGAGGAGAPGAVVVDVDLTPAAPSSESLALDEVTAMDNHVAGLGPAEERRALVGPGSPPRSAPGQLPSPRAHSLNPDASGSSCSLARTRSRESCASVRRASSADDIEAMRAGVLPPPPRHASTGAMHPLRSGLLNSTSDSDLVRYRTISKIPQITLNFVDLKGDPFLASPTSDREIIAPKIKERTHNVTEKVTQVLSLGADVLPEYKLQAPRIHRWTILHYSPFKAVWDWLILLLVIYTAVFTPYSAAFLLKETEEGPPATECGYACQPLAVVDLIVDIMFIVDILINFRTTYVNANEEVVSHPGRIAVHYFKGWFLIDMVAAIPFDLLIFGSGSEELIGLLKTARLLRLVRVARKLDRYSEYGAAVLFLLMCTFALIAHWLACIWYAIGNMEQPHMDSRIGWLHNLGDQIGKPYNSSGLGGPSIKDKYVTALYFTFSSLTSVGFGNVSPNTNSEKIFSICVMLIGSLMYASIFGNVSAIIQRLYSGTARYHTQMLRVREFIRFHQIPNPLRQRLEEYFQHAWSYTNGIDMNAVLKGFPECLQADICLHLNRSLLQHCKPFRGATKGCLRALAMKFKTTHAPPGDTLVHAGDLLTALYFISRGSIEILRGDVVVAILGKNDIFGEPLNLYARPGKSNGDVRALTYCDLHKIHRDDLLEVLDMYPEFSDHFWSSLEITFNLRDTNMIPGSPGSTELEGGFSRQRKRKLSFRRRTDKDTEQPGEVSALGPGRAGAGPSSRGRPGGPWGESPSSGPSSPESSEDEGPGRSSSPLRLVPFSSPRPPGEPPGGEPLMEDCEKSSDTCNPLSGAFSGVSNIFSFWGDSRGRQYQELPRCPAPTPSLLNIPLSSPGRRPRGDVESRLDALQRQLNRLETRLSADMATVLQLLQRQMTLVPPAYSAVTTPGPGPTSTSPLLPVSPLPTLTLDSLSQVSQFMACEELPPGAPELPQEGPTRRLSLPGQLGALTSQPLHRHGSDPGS

SMILES	hERG current change (%, negative = inhibition) at 10uM
COc1cccc(S(=O)(=O)NCc2ccc(C(=O)Nc3ccc(Cl)c(Cl)c3)cc2)c1	-0.604%
COC(=O)[C@H](C)NC(=O)NC1CCCc2ccccc21 (stereo partly shown)	-4.21%
COc1ccc2cc(C(N)=O)c(=Nc3ccc(C)cc3)oc2c1	7.06%
CCCn1c(SCC(=O)N2CCc3ccccc3C2)nc2c1c(=O)n(C)c(=O)n2C	-29.2%
CC(CCN1C(N(C)C)=NC[C@@H]1C)c1ccccc1 (stereo partly shown)	-6.23%
CC(C)n1c(SCC(=O)Nc2ccccc2N2CCCCC2)nc2c1c(=O)n(C)c(=O)n2C	-36.7%
Cc1oc(C(C)(C)C)cc1C(=O)N1CCN(c2ncccc2C(F)(F)F)CC1	-13.9%
CCOC(=O)c1c(C)nc(C)c(C(=O)OCC)c1-c1ccc(Br)cc1	-29.7%
O=C(Cc1ccccc1)N/N=C/c1cccc([N+](=O)[O-])c1	6.9%
CC(=O)O[C@H]1C[C@@H]2CC[C@@H]3[C@H](CC[C@@]4(C)[C@H]3C[C@H]([N+]3(C)CCCCC3)[C@@H]4OC(C)=O)[C@@]2(C)C[C@@H]1[N+]1(C)CCCCC1.[Br-]	10.9%
C=CCn1c(SCC(=O)N(CC)C2CCS(=O)(=O)C2)nc2sc3c(c2c1=O)CCC3 (stereo not shown)	-46.7%
COC(=O)c1cc(C(=O)Nc2cc(C)ccn2)cc([N+](=O)[O-])c1	10.3%
C#Cc1cccc(-n2nnc(C(C)=O)c2C)c1	15.5%
CN(C(=O)Cn1nnc(-c2cccnc2)n1)C1CCCCC1	2.31%
CCC(CO)NC(=O)c1ccccc1C(F)(F)F (stereo not shown)	2.26%
Cc1cccc(NC(=O)c2nc[nH]c2C(=O)N[C@@H](CC(C)C)C(=O)OCc2ccccc2)c1	3.12%
CC(C)CC(C(=O)Nc1ccc2c(c1)OCCO2)N1C(=O)c2ccccc2C1=O (stereo not shown)	3.41%
O=C(CSc1oc(-c2cccs2)nc1S(=O)(=O)c1ccc(F)cc1)NCC1CCCO1 (stereo not shown)	-26.7%
COc1ccc(-c2noc(CN3CCN(C(=O)c4cccs4)CC3)n2)c(OC)c1OC	-15.7%
O=[N+]([O-])c1cc(/C=N/N2CCOCC2)cs1	9.76%
O=C(CCc1nnc(CCCc2ccccc2)o1)NCC(F)(F)F	12.3%
COc1ccc(OCC(=O)Nc2ccc(N3CCN(Cc4ccccc4F)CC3)cc2)cc1	6.66%
COc1ccc(N2CCN(C(=O)CNC(=O)c3cccs3)CC2)cc1	10.9%
COc1cccc(CNC(=O)c2ccc(OCC(=O)N3CCOCC3)c(OC)c2)c1	20.1%
NC(=O)C1CCN(c2ccc(C(F)(F)F)cn2)CC1	18.1%
O=S(=O)(Nc1nc2ccccc2nc1NCC1CCCO1)c1cc(Cl)ccc1Cl (stereo not shown)	-19.7%
COc1ccc(CCn2ccc(O)c(Cc3ccc(Cl)cc3Cl)c2=O)cc1OC	-10.3%
CCC(Sc1nnc(-c2ccco2)n1C)C(=O)Nc1nnc(C)s1 (stereo not shown)	12.8%

SMILES	hERG current change (%, negative = inhibition) at 10uM
OC(COc1ccc2c(c1)CCC2)Cn1cnc2ccccc21 (stereo not shown)	7.51%
COc1ccc(C2CC(=O)C3=C(C2)Nc2ncnn2C3c2ccccc2C)c(OC)c1 (stereo not shown)	-12%
Cc1cc(NC(=O)c2ccc3c(c2)C(=O)N(C)C3=O)no1	15%
Cc1cc(C)cc(-n2c(C)cc(/C=N/NC(=O)CN(c3c(C)cccc3C)S(C)(=O)=O)c2C)c1	16.4%
O=C1C2CC=CCC2C(=O)N1Cc1ccccc1 (stereo not shown)	2.21%
CN1CCN(NS(=O)(=O)c2ccc(Cl)cc2)CC1	19.4%
CCOC(=O)/C(=N/Nc1ccc(Cl)cc1)S(=O)(=O)c1ccccc1	-9.5%
Cc1cc(C)n(Cc2ccc(NC(=O)c3ccc(COc4ccccc4Br)cc3)cc2)n1	-11.2%
O=C(C1CCCN(S(=O)(=O)c2ccccc2)C1)N1CCN(c2ncccn2)CC1 (stereo not shown)	-32.6%
O=c1[nH]ncc(NCCc2ccccc2)c1Cl	17.5%
CC(NC(=O)Cn1ncc(Cl)c(Cl)c1=O)C12CC3CC(CC(C3)C1)C2 (stereo not shown)	15.5%
COC(=O)c1cc(C)nc(Sc2ccccc2NC(C)=O)n1	8.41%
CCOC(=O)C1(C)NC(c2ccc(OC)c(OC)c2)C2C(=O)N(CC)C(=O)C21 (stereo not shown)	-13.9%
CCCn1cc(S(=O)(=O)c2ccc(C)cc2)c(=O)c2cc(OC)c(OC)cc21	-0.0977%
O=C(COc1ccc(Cl)cc1)Nc1ccc2c(c1)C(=O)NC2=O	15.6%
CCCc1c(C)c2cc(C)ccc2[nH]c1=O	-25.3%
CC(=O)Nc1nnc(SCc2cccc(F)c2)s1	2.05%
CC1CCC2(CC1)Nc1ccccc1C(=O)N2c1ccccc1 (stereo not shown)	5.23%
CCOc1nc2ccccc2nc1C	14.9%
COC(=O)c1sccc1NC(=S)N1CCN(C)CC1	0.218%
O=C(O)C(=O)O.c1ccc(CN2CCN(C(c3ccccc3)c3ccccc3)CC2)cc1	2.22%
O=C1NN=C(c2ccc(Cl)cc2)CC1c1cccc(Cl)c1 (stereo not shown)	-4.64%
O=S(=O)(c1ccc(NC(=S)Nc2ccc3c(c2)OCO3)cc1)N1CCOCC1	13.1%
COc1ccccc1C(=O)NCCC(=O)NCc1ccncc1	-4.37%
CCOC(=O)c1ccc(NS(=O)(=O)c2c(C)nc3sccn3c2=O)cc1	1.63%
COc1ccc(-n2c(CN3CCC(C(N)=O)CC3)nc3ccc([N+](=O)[O-])cc3c2=O)c(OC)c1	-3.9%
O=C1CCC(C(=O)NCc2ccccc2)N1 (stereo not shown)	19.1%
